Among the test systems are SF-295 CNS; CAKI-1 renal; RXF 393 renal; SNB-75 CNS; LOX IMVI melanoma; SK-OV-3 ovarian; OVCAR-8 ovarian; KM12 colon; SN12C renal; HOP-62 NSCLC; SK-MEL-5 melanoma; A549 NSCLC; 786-0 renal; EKVX NSCLC; NCI/ADR-RES ovarian; M14 melanoma; SNB-19 CNS; T-47D breast; OVCAR-5 ovarian; HCT-116 colon; BT-549 breast; NCI-H460 lung; NCI-H226 lung; OVCAR-4 ovarian.
Common to all, as to experiment: NCI tumour cell line growth inhibition, 48 h

The source of these data is PubChem BioAssay (NCI).

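96-well plates; 48 h exposure; 5 concentrations. Endpoints by linear interpolation between flanking doses. Not reached: highest tested concentration assigned. At the TGI there is no net growth.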 The source holds more than one record for some entries. This is not the full list of results. An entry can have further records. For some of these results: The tests behind the records often covered other concentration ranges, not given here; some values may only mark the edge of a range. For some of these results: The values listed for one entry are repeated measurements (runs, samples, wells, individuals or studies). Marks in square brackets tell the records apart. Letters hold for one entry only.

As to `Oc1c(I)cc(Cl)c2cccnc12`, the TGI is 89.4 µM [sample A, 1 test] and 8.79 µM [sample B, 1 test] in the assay on SF-295 CNS; 77.1 µM [sample A, 1 test] and 7.4 µM [sample B, 1 test] with CAKI-1 renal; > 100 µM [sample A, 1 test] and 7.49 µM [sample B, 1 test] with RXF 393 renal.

Turning to `CC1CCC2c3c([nH]c4ccccc34)C3C(=O)N(c4ccccc4)C(=O)C3C2C1` (stereo not given), in the assay with SNB-75 CNS, the TGI is 6.43 µM and 164 µM.

As to `CC(=O)Nc1cc(/C=C\C(=O)N2CC(CCl)c3c2cc(N)c2ccccc32)n(C)n1` (stereo not given), the TGI was 1.84 µM and > 100 µM in the assay on LOX IMVI melanoma; 66.2 nM and > 100 µM in the assay with SK-OV-3 ovarian; 55.8 nM and > 100 µM in the assay on SF-295 CNS; 8.71 nM and 15.3 µM in the assay on OVCAR-8 ovarian; 77.8 nM and 1.3 µM with KM12 colon; 3.21 nM and 175 nM in the assay with SN12C renal. Besides, the TGI in the assay on HOP-62 NSCLC was 22.9 nM and 1.19 µM; in the assay with SK-MEL-5 melanoma, 9.45 nM and 11.1 µM; with A549 NSCLC it was 127 nM and > 100 µM; in the assay with 786-0 renal it was 4.4 nM and 13.3 µM; with EKVX NSCLC it was 65.6 nM and > 100 µM; in the assay with NCI/ADR-RES ovarian it was 548 nM and > 100 µM. Besides, the TGI in the assay with M14 melanoma is 31.3 nM and 1.06 µM; with SNB-19 CNS, 350 nM and 12.7 µM; in the assay with T-47D breast, 28.9 nM and > 100 µM; with OVCAR-5 ovarian, 70.6 nM and > 100 µM; in the assay with HCT-116 colon, 1.01 µM and > 100 µM; in the assay with BT-549 breast, 424 nM and 11.4 µM. For the same compound, the TGI was 1.18 µM and > 100 µM in the assay on NCI-H460 lung; 43.9 nM and > 100 µM in the assay on NCI-H226 lung; 69.6 nM and > 100 µM in the assay on OVCAR-4 ovarian.
